# Assay results: the supplement of paper PMC10037445
# In all, about 2,900 compounds were measured (“IRF Lucia reporter activity, fold change vs agonist alone”: median about 0.9, highest 2% from about 2.8 on). This is one part of the list.
# Tests used:
# [1] = test system: RAW-Dual; test: IRF Lucia reporter activity, fold change vs agonist alone; cytotoxicity flag (confluency mask): not cytotoxic; higher = enhanced IRF activity
# How it was run: (§1)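 RAW-Dual macrophages (50,000 cells/well in DMEM, 384-well plates) received 50 nL of library stock by pin tool, then a PRR agonist 1 h later, and were kept at 37 °C, 5% CO2. After 20 hours, supernatant was read for IRF by QuantiLuc luminescence and for NF-κB by QuantiBlue absorbance at 620 nm. Reporter activity is fold change over agonist-alone wells. Cytotoxic wells had IncuCyte confluency below 70% of agonist controls in both mask sets.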
# [2] = test system: RAW-Dual; test: IRF Lucia reporter activity, fold change vs agonist alone; higher = enhanced IRF activity; conditions: agonist: MPLA (TLR4) […]
# How it was run: as §1
# [3] = test system: RAW-Dual; test: IRF Lucia reporter activity, fold change vs agonist alone; cytotoxicity flag (confluency mask): cytotoxic (confluency <70% of control); higher = enhanced IRF activity
# How it was run: as §1
# [4] = agonist: 3'3'-cGAMP (STING) 10 ug/mL
# [5] = library stock concentration (final ~1000-fold dilution): 10 mM, cytotoxicity flag (confluency mask): not cytotoxic
# [6] = library stock concentration (final ~1000-fold dilution): 2 mM, cytotoxicity flag (confluency mask): not cytotoxic
structure (smiles),measurement,setting,value
Cc1ccc(-c2csc(NC(=O)c3ccccc3)n2)c(C)c1 (library stock concentration (final ~1000-fold dilution): 10 mM),IRF Lucia reporter activity,[1]; [4],1.43
same,IRF Lucia reporter activity,[1]; agonist: LPS (TLR4) 0.1 ug/mL,0.99
CC(=O)NC1=NN(C(C)=O)C(C)(c2ccccc2)S1 (stereo unspecified),IRF Lucia reporter activity,[2]; [5],0.893
CC(=O)NC1=NN(C(C)=O)C(C)(c2ccccc2)S1 (stereo unspecified) (library stock concentration (final ~1000-fold dilution): 10 mM),IRF Lucia reporter activity,[1]; [4],0.545
same,IRF Lucia reporter activity,[1]; agonist: LPS (TLR4) 0.1 ug/mL,0.849
NC(Cc1ccc(Cl)cc1)C(=O)O (stereo unspecified) (library stock concentration (final ~1000-fold dilution): 10 mM),IRF Lucia reporter activity,[1]; [4],1.04
same,IRF Lucia reporter activity,[1]; agonist: LPS (TLR4) 0.1 ug/mL,1.25
NC(Cc1ccc(Cl)cc1)C(=O)O (stereo unspecified),IRF Lucia reporter activity,[2]; [5],1.03
O=c1cc(N2CCOCC2)oc2c(-c3cccc4c3sc3ccccc34)cccc12 (library stock concentration (final ~1000-fold dilution): 2 mM),IRF Lucia reporter activity,[1]; [4],0.548
same,IRF Lucia reporter activity,[1]; agonist: LPS (TLR4) 0.1 ug/mL,7.23
O=c1cc(N2CCOCC2)oc2c(-c3cccc4c3sc3ccccc34)cccc12,IRF Lucia reporter activity,[2]; [6],2.7
CCCCc1nc(-c2ccc(OCCCN(CC)CC)cc2)cn1-c1ccc(Oc2ccc(Cl)cc2)cc1,IRF Lucia reporter activity,"[2]; library stock concentration (final ~1000-fold dilution): 10 mM, cytotoxicity flag (confluency mask): cytotoxic (confluency <70% of control)",0.21
CCCCc1nc(-c2ccc(OCCCN(CC)CC)cc2)cn1-c1ccc(Oc2ccc(Cl)cc2)cc1 (library stock concentration (final ~1000-fold dilution): 10 mM),IRF Lucia reporter activity,[3]; [4],0.691
same,IRF Lucia reporter activity,[3]; agonist: LPS (TLR4) 0.1 ug/mL,0.116
CCC(C)n1cc(C)c2c(C(=O)NCc3c(C)cc(C)[nH]c3=O)cc(-c3ccc(N4CCNCC4)nc3)cc21 (stereo unspecified) (library stock concentration (final ~1000-fold dilution): 2 mM),IRF Lucia reporter activity,[1]; [4],1.01
same,IRF Lucia reporter activity,[1]; agonist: LPS (TLR4) 0.1 ug/mL,0.947
CCC(C)n1cc(C)c2c(C(=O)NCc3c(C)cc(C)[nH]c3=O)cc(-c3ccc(N4CCNCC4)nc3)cc21 (stereo unspecified),IRF Lucia reporter activity,[2]; [6],0.958
COc1ccc([C@@H]2CC(=O)c3c(O)cc(O[C@@H]4O[C@H](CO[C@@H]5O[C@@H](C)[C@H](O)[C@@H](O)[C@H]5O)[C@@H](O)[C@H](O)[C@H]4O)cc3O2)cc1O (library stock concentration (final ~1000-fold dilution): 10 mM),IRF Lucia reporter activity,[1]; [4],0.845
same,IRF Lucia reporter activity,[1]; agonist: LPS (TLR4) 0.1 ug/mL,1.09
O=c1ccc2ccc(O)cc2o1 (library stock concentration (final ~1000-fold dilution): 10 mM),IRF Lucia reporter activity,[1]; [4],1.01
same,IRF Lucia reporter activity,[1]; agonist: LPS (TLR4) 0.1 ug/mL,0.663
O=c1ccc2ccc(O)cc2o1,IRF Lucia reporter activity,[2]; [5],0.984
O=c1ccc2ccc(OCCCCN3CCN(c4cccc5sccc45)CC3)cc2[nH]1,IRF Lucia reporter activity,[2]; [5],1.08
O=c1ccc2ccc(OCCCCN3CCN(c4cccc5sccc45)CC3)cc2[nH]1 (library stock concentration (final ~1000-fold dilution): 10 mM),IRF Lucia reporter activity,[1]; [4],1.06
same,IRF Lucia reporter activity,[1]; agonist: LPS (TLR4) 0.1 ug/mL,1.36
C[N+](C)(C)CCCCCC[N+](C)(C)C (library stock concentration (final ~1000-fold dilution): 10 mM water),IRF Lucia reporter activity,[1]; [4],1.43
same,IRF Lucia reporter activity,[1]; agonist: LPS (TLR4) 0.1 ug/mL,1.05
C[N+](C)(C)CCCCCC[N+](C)(C)C,IRF Lucia reporter activity,"[2]; library stock concentration (final ~1000-fold dilution): 10 mM water, cytotoxicity flag (confluency mask): not cytotoxic",1.39
Cn1cc(-c2ccc3ncc(Cc4ccc5ncccc5c4)n3n2)cn1,IRF Lucia reporter activity,[2]; [5],0.482
Cn1cc(-c2ccc3ncc(Cc4ccc5ncccc5c4)n3n2)cn1 (library stock concentration (final ~1000-fold dilution): 10 mM),IRF Lucia reporter activity,[1]; [4],0.218
same,IRF Lucia reporter activity,[1]; agonist: LPS (TLR4) 0.1 ug/mL,0.43
Cc1ccc(NC(=O)Nc2cc(-c3ccccc3-c3nnn[nH]3)ccc2N(CC(C)C)CC(C)C)cc1 (library stock concentration (final ~1000-fold dilution): 10 mM),IRF Lucia reporter activity,[3]; [4],0.933
same,IRF Lucia reporter activity,[3]; agonist: LPS (TLR4) 0.1 ug/mL,2.09
Cc1cc(NC(=O)Nc2ccc(N(C)C)cc2)c2cc(F)cc(F)c2n1,IRF Lucia reporter activity,[2]; [5],0.858
Cc1cc(NC(=O)Nc2ccc(N(C)C)cc2)c2cc(F)cc(F)c2n1 (library stock concentration (final ~1000-fold dilution): 10 mM),IRF Lucia reporter activity,[1]; [4],0.984
same,IRF Lucia reporter activity,[1]; agonist: LPS (TLR4) 0.1 ug/mL,0.348
Br.CCCc1cc(-c2nc(-c3ccc(C)cc3)cs2)ccn1 (library stock concentration (final ~1000-fold dilution): 10 mM),IRF Lucia reporter activity,[3]; [4],1.18
same,IRF Lucia reporter activity,[3]; agonist: LPS (TLR4) 0.1 ug/mL,1.46
C=C1CCC(O)CC1=CC=C1CCCC2(C)C1CCC2C(C)CCCC(C)C (stereo unspecified) (library stock concentration (final ~1000-fold dilution): 1 mM),IRF Lucia reporter activity,[1]; [4],0.591
same,IRF Lucia reporter activity,[1]; agonist: LPS (TLR4) 0.1 ug/mL,0.364
CC1CN(CC(Cc2ccccc2)C(=O)NCC(=O)O)CCC1(C)c1cccc(O)c1 (stereo unspecified) (library stock concentration (final ~1000-fold dilution): 10 mM),IRF Lucia reporter activity,[1]; [4],0.991
same,IRF Lucia reporter activity,[1]; agonist: LPS (TLR4) 0.1 ug/mL,0.234
CC1CN(CC(Cc2ccccc2)C(=O)NCC(=O)O)CCC1(C)c1cccc(O)c1 (stereo unspecified),IRF Lucia reporter activity,[2]; [5],0.979
Cc1cn(C2C=CC(CO)O2)c(=O)[nH]c1=O (stereo unspecified),IRF Lucia reporter activity,[2]; [5],0.978
Cc1cn(C2C=CC(CO)O2)c(=O)[nH]c1=O (stereo unspecified) (library stock concentration (final ~1000-fold dilution): 10 mM),IRF Lucia reporter activity,[1]; [4],0.918
same,IRF Lucia reporter activity,[1]; agonist: LPS (TLR4) 0.1 ug/mL,1.13
